# Test results reported in ChEMBL document CHEMBL4888484, “Replenishing the malaria drug discovery pipeline: Screening and hit evaluation of the MMV Hit Generation Library 1 (HGL1) against asexual blood stage Plasmodium falciparum ,using a nano luciferase reporter read-out” (2022).
# Out of some 150,000 compounds screened, about 540 (0.36%) showed an effect of 50% or more. This is one part of the list.
# Test system: Plasmodium falciparum
# Assay: Primary screen in NF54 nanoGlo assay, in single point, at 2uM, 72h; a lower Z score goes with more inhibition
# Format: functional, Erythrocyte
# Details: timepoint 72 hour
Compound,% Inhibition,Z score
CCOC1CC1C(=O)N1CCCCCC1c1noc(-c2cnn(C)c2)n1 (configuration not stated),-3%,0.64
CCN1CCn2c(nn(CC(=O)Nc3cc(C)on3)c2=O)C1=O,-16%,1.86
Cc1cc(N[C@H]2CCc3nnnn3CC2)nc(C)n1,-8%,1.56
CC(CCc1ccccc1)NS(=O)(=O)CC1CCOC1 (configuration not stated),-11%,1.86
CCc1ccc(-c2nccn2-c2ccc3c(c2)OCO3)nc1,9%,-1.13
C=CCCC(=O)N1CCC[C@H](Oc2ccnc(C)n2)C1,-6%,1.11
Cc1ccc(-c2cc(C(F)(F)F)nn2-c2nc(-c3ccc(F)cc3)cs2)cc1,6%,-0.93
Cn1cccc1C(=O)NCCCn1ncc2ccccc21,-5%,0.66
N#CCN[C@@H](C1CCCC1)C(F)(F)F,5%,-0.67
COCC(=O)Nc1ccc2c(c1)N(C)S(=O)(=O)N2C,-4%,0.57
COCCc1nc(C2(c3ccccc3F)CC2)n(CC(F)(F)F)n1,-12%,1.31
Cc1cc(F)cc(C(=O)NCCCNCc2cccnc2)c1,-3%,0.29
O=C(NCc1ccco1)NC1CCCC1,6%,-1.12
CCCn1c(=O)[nH]c2c(c1=O)C(C)(C)Cc1ccccc1-2,-7%,0.78
CC(C)Cn1cncc1CNC(=O)Nc1cnns1,-4%,0.69
COC(=O)N1N=C2CCCCC2C1(O)C(F)(F)F (configuration not stated),10%,-1.27
c1ccc2c(c1)C[C@H](CNC1CCOCC1)CO2,-9%,1.68
O=c1ccn(-c2ccccn2)n1CCOCC(F)F,8%,-0.91
O=C1c2ccccc2C(=O)N1CCn1cncn1,-17%,1.93
COc1ccc([C@@H]2NC(=O)N[C@H]3OCCC[C@H]32)cc1,-10%,1.14
O=C(COC1CCCCC1)Nc1ccc(-c2ccccc2)cn1,-10%,1.66
CCN(C(=O)c1noc2c1CCCC2)c1cccc(C)c1,-10%,1.8

Compound,% Inhibition,Z score
COc1ccc(Cl)cc1S(=O)(=O)Cc1ccc(-c2nc(-c3ccccc3C)no2)o1,4%,-0.59
CCc1nn(C)c(NC(=O)N[C@@H](CO)Cc2ccc(O)cc2)c1C,-11%,1.84
O=C(NCCN1CCOCC1)c1coc(CN(CCc2c[nH]c3ccccc23)Cc2cccc(F)c2)n1,-12%,2.04
CCN(CC)Cc1nc(C2(NS(=O)(=O)c3ccc(OCC(C)C)cc3)CCCC2)no1,-8%,1.35
CC1(C)[C@@H](c2ccccc2F)CCN1CCO,-9%,0.96
Nc1cc(N2CCN(Cc3ccc4c(c3)CCO4)C[C@H](O)C2)ncn1,12%,-1.6
Cc1ccc2[nH]cc(CCC(=O)NCC(=O)Nc3cccnc3)c2c1,-15%,1.65
CC(C)=CCO[C@H]1COCC[C@@H]1NC(=O)c1c[nH]c(=O)[nH]1,2%,-0.46
C[C@H]1CCCCN1C1CN(Cc2ccc(OC(F)F)cc2)C1,-2%,0.47
O=C(NCc1cccnc1Oc1ccc(F)cc1F)c1cccnn1,0%,-0.07
O=C(Nc1cnnn1-c1ccccc1)N1CCn2nc(C3CC3)cc2C1,-7%,1.3
O=C1C[C@H](N2CCC3(CC2)OCCO3)C(=O)N1c1cccc(F)c1,1%,-0.18
CCOC(Cn1ncc(C(=O)NCCc2ccccc2C)c1N)OCC,-6%,0.85
C[C@H](NCc1ccccc1CN1CCOCC1)c1cc(F)cc(F)c1,0%,0.02
COc1ccc(S(=O)(=O)CCC#N)cc1F,-13%,2.37
CCOC(=O)CCS(=O)(=O)NC1CCCCC1,-6%,0.95
CN1CCO[C@@H](CN(CCOc2cccc(C#N)c2)CCOc2cccc(C#N)c2)C1,-5%,0.46
Fc1ccc(-c2cn(CCN3CCOCC3)nn2)cc1Cl,-24%,3.11
CC(=O)N1CC2(CCN(Cc3ccc(CC(C)C)cc3)CC2)C[C@H]1C(=O)O,-18%,2.34
CN1CCN(c2snnc2CO)CC1,-6%,0.71
CCc1cc(CNC(=O)Cc2c[nH]c(=O)n(C)c2=O)on1,0%,-0.05
COc1ccc(N2Cc3ccccc3OCC2=O)cc1,-19%,2.13

Compound,% Inhibition,Z score
CS(=O)(=O)N1CCOC[C@H](Oc2cccnc2)C1,-3%,0.36
CC(C)n1nc(C(=O)N2c3ccccc3C[C@@H]2C)ccc1=O,-17%,2.22
O=C(N[C@H]1C[C@H]2C(=O)N[C@H](CO)C(=O)N2C1)c1cccnc1Oc1ccc(Cl)cc1,-10%,1.22
COc1cc(NC(=O)CCc2c(C)nn(-c3ccc(N4CCCC4)nn3)c2C)cc(OC)c1OC,1%,-0.21
O=S(=O)(c1cc(F)cc(F)c1)N1CCC(n2cnnc2C2CC2)CC1,-2%,0.36
O=C(NCCc1ccc(C2CCCCC2)cc1)C1CCC(C(=O)O)NC1 (configuration not stated),-11%,1.09
COCCN1C[C@@H](Cc2nccc(N(C)C)n2)CC1=O,-5%,1.01
COCCN1CCC[C@H](c2[nH]ccc2C(=O)NCc2ccco2)C1,-9%,1.04
Fc1ccc(-c2n[nH]cc2CN2CCC(Nc3ncccn3)CC2)cc1,-1%,0.1
O=C1C[C@H](C(=O)Nc2ccccc2NCc2ccc(Cl)cc2)CN1,-6%,0.5
CC(=O)c1cccc(NC(=O)CNC2(c3nccs3)CCCC2)c1,-2%,0.17
OC[C@H]1C[C@@H](CN2CCOCC2)CN(Cc2ccc(-c3cc[nH]n3)s2)C1,-9%,1.39
Cc1cc(OCc2cc(C(=O)N3CCN(C)[C@@H](C)C3)no2)cc(C)c1Cl,15%,-1.93
Cc1cc(C(=O)N2CC(C(=O)NC[C@H]3CCCO3)C2)no1,-9%,1.6
Cc1nc(-n2nc(C)c(Cc3ccc(Cl)cc3)c2C)sc1C(=O)N1CCOCC1,-12%,1.07
COc1ccc(-c2nc(NCc3ccc4c(c3)OCCO4)[nH]c(=O)c2C#N)cc1,-3%,0.65
CC(C)c1cc(CN(C)c2nnc(C3CCC3)o2)no1,-8%,1.09
O=C1NC2=Nc3ccccc3NC(c3ccccc3)=C2[C@H](c2cccc3ncccc23)N1,27%,-3.37
CCc1ccc2c(c1)C1(NC(Cc3c[nH]c4ccccc34)C3C(=O)N(c4ccc5c(c4)OCCO5)C(=O)C31)C(=O)N2 (configuration not stated),-4%,0.53
O=C(c1ccc2c(c1)n(CC1CC1)c(=O)n2C1CCCCC1)N1CCOCC1,0%,0.02
C[C@@](NC(=O)NCC(=O)N1CCN(Cc2ccccc2)CC1)(C(=O)N1CCN(Cc2ccccc2)CC1)C1CC1,-2%,0.18
CCc1nnsc1C(=O)NCc1noc(-c2ccccc2)n1,-9%,1.36

Compound,% Inhibition,Z score
CCc1noc(C)c1-c1noc(-c2nc3nccc(C)n3n2)n1,1%,-0.2
O=C1COc2cccc(OC[C@@H](O)COc3ccc(F)cc3)c2N1,12%,-1.06
Nc1c2c(nn1-c1ccccc1)-c1ccccc1CC21CCCC1,-2%,0.48
C=CCc1cc(C(=O)N[C@H]2CCN(C)C2)ccc1OC,2%,-0.33
C[C@H]1C[C@H](NC(=O)c2cc(OC(F)F)n(C)n2)c2ccsc2S1(=O)=O,-8%,1.21
O=C(CN1C(=O)NC2(CCCCCCC2)C1=O)Nc1ccc(Br)cc1,10%,-1.31
COCc1cccc(C(=O)N2CCNC(=O)[C@@H]2c2cccc(F)c2)c1,-13%,1.26
O=C1C[C@@H](c2cccc(Br)c2)c2c(O)nc(N3CCOCC3)nc2N1,30%,-4.36
CCc1cc(CNC(=O)[C@]2(CC)CCCN2)on1,7%,-1.01
COc1ccc(-c2ccc3c(c2)C[C@H](CN)O3)nn1,1%,-0.19
O=C(CC1(N2Cc3ccccc3C2=O)CCCCC1)N1CCN(Cc2ccc3c(c2)OCO3)CC1,-13%,1.67
Cc1cc(C)nc(CCNC(=O)NC[C@@H](O)Cc2ccccc2)n1,-7%,1.14
COc1cccc(CN2CCC[C@@]3(CCN(c4cncc(C(N)=O)n4)C3)C2=O)c1OC,7%,-1.29
Nc1nnc(N2CCN(C3CCCCC3)CC2)s1,-4%,0.48
COc1cc(C(=O)NCCc2ccc(F)cc2)ncn1,7%,-1.23
Cc1cc(C(F)F)oc1C(=O)N[C@@H](C)c1ccc[nH]1,-4%,0.61
COCCOc1cnc(-c2noc([C@@H]3COc4cc(F)ccc4C3)n2)cn1,-11%,1.21
NC(=O)Nc1ccc(COC2CCCC2)cc1,25%,-2.87
Cc1onc(N)c1S(=O)(=O)NC(=O)C1CC12CCCc1ccccc12 (configuration not stated),-5%,0.66
Fc1cc(F)cc(CNc2nnc(-c3ccon3)s2)c1,-11%,1.4
